Fewer than 10 of roughly 340,000 compounds were called active. This list was built around the results that the source calls inconclusive (neither active nor inactive); the mix of calls is not that of the screen. The call rests on the fitted dose curve; in most records, active means well fitted inhibition curve with a large enough effect in the main read-out, with a control signal flat (not every such curve was filed as active); inconclusive means small, poorly fitted or top-dose-only effect, or effect the other way, or a change in a side signal; inactive means no such curve, though single readings can be large or run the other way. Potencies beside an inconclusive call are fits to weak or partial responses and may not hold up. A note “side channel” means that the fit belongs to a control or component signal, not to the main read-out.
These compounds were tested against Tumor susceptibility gene 101 protein (Homo sapiens) (UniProt Q99816) (assay: qHTS Assay for Iinhibitors of HIV-1 Budding by Blocking the Interaction of PTAP/TSG101). Conditions: Fluorescence polarization, FITC-PTAP peptide / Tsg101 binding; series mostly up to 115 µM.
UniProt Q99816, sequence (Q99816 whole entry, looked up, the tested form may be a part): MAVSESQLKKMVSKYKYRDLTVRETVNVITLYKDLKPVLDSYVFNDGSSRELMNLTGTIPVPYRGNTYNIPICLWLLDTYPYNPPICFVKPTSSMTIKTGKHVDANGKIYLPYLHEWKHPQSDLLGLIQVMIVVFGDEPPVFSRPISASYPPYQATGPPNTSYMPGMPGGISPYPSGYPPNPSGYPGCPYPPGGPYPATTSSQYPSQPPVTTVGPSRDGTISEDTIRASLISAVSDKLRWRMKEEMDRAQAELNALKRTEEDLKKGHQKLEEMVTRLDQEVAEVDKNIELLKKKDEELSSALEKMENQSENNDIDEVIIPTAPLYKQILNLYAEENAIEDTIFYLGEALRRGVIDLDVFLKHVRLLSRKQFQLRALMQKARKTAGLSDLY
In short: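 Steps: Tsg101 binding domain dispensed (10 uM final), compounds pinned in DMSO, FITC-labeled PTAP-motif peptide added (50 nM final); after 20 min binding at room temperature, polarization measured.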
`O=C1c2cccc3c(O)ccc(c23)C(=O)N1c1ccc(Cl)cc1` was tested, and the Potency was inconclusive: 56.2 µM [fluorescent, side channel, partial curve, poor fit].
With `CCCc1nnc(NC(=O)Cn2c(=O)oc3cc(Br)ccc32)s1` the Potency was inconclusive: 28.2 µM [quencher, side channel, full curve].
With `Nc1c(C(=O)C2CC2)sc2nc(-c3cccs3)cc(C(F)(F)F)c12` the Potency was inconclusive: 56.2 µM [fluorescent, side channel, partial curve, poor fit].
In the case of `Nc1ccc2c(c1)C/C(=C/c1ccco1)C2=O`, the Potency is reported as inconclusive: 50.1 µM [fluorescent, side channel, partial curve, poor fit].
With `O=C(O)CN1C(=O)/C(=C/c2ccc(SCc3ccccc3)o2)SC1=S` the Potency was inconclusive: 56.2 µM [fluorescent, side channel, partial curve, poor fit].
In the case of `COc1ccc(C2C(C(=O)c3cccs3)=C(O)C(=O)N2c2nnc(C)s2)cc1OC` (centres undefined), the Potency is reported as inconclusive: 50.1 µM [fluorescent, partial curve, poor fit].
With `COc1cc2ccc(=O)oc2cc1O` the Potency was “inactive”.
With `Cc1ccc(C)c(C(=O)CN2C(=O)NC3(CCCCCCC3)C2=O)c1` the Potency was inconclusive: 79.4 µM [quencher, side channel, partial curve, poor fit].
`CC1CCc2c(sc(NC(=O)CCCn3cnc([N+](=O)[O-])n3)c2C(N)=O)C1` (centres undefined) was tested, and the Potency was “inactive”.
`Cc1ccc2[nH]cc(/C=C/c3cc[n+](C)cc3)c2c1` was tested, and the Potency was inconclusive: 56.2 µM [fluorescent, side channel, partial curve, poor fit].
In the case of `COC(=O)CN1C(=S)N(c2ccc(OC)cc2)C(=O)/C1=C/c1ccc(N2CCOCC2)cc1`, the Potency is reported as inconclusive: 56.2 µM [fluorescent, partial curve, poor fit].
In the case of `CC[C@@]1(C(=O)OC)N[C@H](CN(C)C(=O)c2ccc(C)cc2)[C@@H]2C(=O)N(Cc3ccccc3)C(=O)[C@@H]21`, the Potency is reported as inconclusive: 89.1 µM [falling, single point].
For `Cc1noc(C)c1CSCC(=O)N(C)CC(=O)Nc1ccc(Cl)c(Cl)c1`, the Potency was “inactive”.
With `CCCCCCCCOc1ccc(C2OC34CCCCC3C(C#N)(C#N)C2(C#N)C(=N)O4)cc1` (centres undefined) the Potency was inconclusive: 50.1 µM [falling, partial curve, poor fit].
In the case of `CC(/C=C/c1ccc(N(C)C)cc1)=N\N=C(/N)SC1CC(=O)N(c2ccc(C(=O)O)cc2)C1=O` (centres undefined), the Potency is reported as inconclusive: 50.1 µM [fluorescent, side channel, partial curve, poor fit].
`Cc1nc2cc(NC(=O)NCc3ccco3)ccc2n1C` was tested, and the Potency was “inactive”.
For `CCOC(=O)C1=C(C)N=c2s/c(=C/c3ccc(OCC(=O)O)c(OC)c3)c(=O)n2C1c1ccc(Cl)cc1` (centres undefined), the Potency was inconclusive: 79.4 µM [fluorescent, side channel, partial curve, poor fit].
In the case of `O=C1c2ccccc2-c2onc3ccc(NCCCn4ccnc4)c1c23`, the Potency is reported as inconclusive: 22.4 µM [fluorescent, side channel, full curve].
With `Nc1ccc2nc3c(=O)n(CCc4ccccc4)c(=O)[nH]c3nc2c1` the Potency was inconclusive: 25.1 µM [fluorescent, side channel, full curve].
In the case of `COc1cc(/C=C2/N=C(c3ccccc3)OC2=O)c(F)cc1OCc1ccccc1`, the Potency is reported as inconclusive: 89.1 µM [fluorescent, side channel, partial curve, poor fit].
For `O=C1S/C(=C/c2ccc(N3CCOCC3)o2)C(=O)N1Cc1c(F)cccc1Cl`, the Potency was inconclusive: 17.8 µM [fluorescent, side channel, full curve, poor fit].
`CCOC(=O)c1c(-c2ccc(C)cc2)cn2ccccc12` was tested, and the Potency was “inactive”.
`c1ccc(-c2cnn3c(-c4ccccc4)c(-c4ccccc4)nc3n2)cc1` was tested, and the Potency was inconclusive: 39.8 µM [fluorescent, side channel, partial curve].
For `COC(=O)c1ccc(=O)c2nc3/c(=C/O)c(O)cc(=O)c3[nH]c12`, the Potency was inconclusive: 79.4 µM [quencher, side channel, partial curve, poor fit].
Potency means the concentration at half of the fitted maximal effect; tags describe the fitted curve by direction and shape or compound fluorescence and quenching.
